SMILES strings stand for the structures. The campaign covered roughly 310,000 compounds. About 2,200 (0.71%) showed an effect of 50% or more. The effect is printed as a negative number. The list shows a part of the results.

For this assay, the target named is human ether-à-go-go-related gene (hERG) potassium channel (human, UniProt Q12809). The assay can be described thus: primary screen, population patch clamp on CHO cells stably expressing hERG.
human ether-à-go-go-related gene (hERG) potassium channel, sequence (Q12809 whole entry, looked up): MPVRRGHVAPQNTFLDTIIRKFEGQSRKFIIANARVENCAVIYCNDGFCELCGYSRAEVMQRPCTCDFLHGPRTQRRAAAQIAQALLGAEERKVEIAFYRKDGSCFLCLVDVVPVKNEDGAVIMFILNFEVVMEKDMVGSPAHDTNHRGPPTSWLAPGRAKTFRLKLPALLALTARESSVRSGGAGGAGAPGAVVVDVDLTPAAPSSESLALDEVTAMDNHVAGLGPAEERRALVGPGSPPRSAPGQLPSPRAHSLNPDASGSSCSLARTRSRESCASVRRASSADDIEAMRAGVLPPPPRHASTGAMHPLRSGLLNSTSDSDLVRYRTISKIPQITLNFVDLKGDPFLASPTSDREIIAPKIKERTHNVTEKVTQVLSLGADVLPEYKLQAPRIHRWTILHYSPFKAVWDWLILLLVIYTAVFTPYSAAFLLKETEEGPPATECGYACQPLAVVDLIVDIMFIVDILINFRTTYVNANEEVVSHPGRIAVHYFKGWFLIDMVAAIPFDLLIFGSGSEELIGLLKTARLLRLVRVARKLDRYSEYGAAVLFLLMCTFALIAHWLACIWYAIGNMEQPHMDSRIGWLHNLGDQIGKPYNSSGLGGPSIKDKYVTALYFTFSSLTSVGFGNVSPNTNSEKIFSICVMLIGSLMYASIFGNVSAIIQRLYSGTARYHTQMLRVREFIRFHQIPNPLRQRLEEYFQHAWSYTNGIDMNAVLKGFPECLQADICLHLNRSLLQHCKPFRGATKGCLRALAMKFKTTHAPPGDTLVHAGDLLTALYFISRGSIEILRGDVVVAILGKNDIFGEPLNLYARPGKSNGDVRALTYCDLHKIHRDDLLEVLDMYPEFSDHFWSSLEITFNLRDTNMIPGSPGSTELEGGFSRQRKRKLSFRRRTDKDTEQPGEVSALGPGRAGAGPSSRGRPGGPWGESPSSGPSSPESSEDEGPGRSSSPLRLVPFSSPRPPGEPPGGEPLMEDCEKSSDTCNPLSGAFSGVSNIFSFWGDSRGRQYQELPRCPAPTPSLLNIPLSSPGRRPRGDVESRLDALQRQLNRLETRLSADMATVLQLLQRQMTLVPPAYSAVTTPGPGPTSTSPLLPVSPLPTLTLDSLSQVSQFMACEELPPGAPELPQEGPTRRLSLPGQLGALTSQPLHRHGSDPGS
Turning to `CC12CCC(C(=O)N(NC(=O)c3ccc(O)cc3)C1=O)C2(C)C` (stereo not shown), the “hERG current change (%, negative = inhibition) at 1uM” value stood at 22%. For `COc1ccc(N(CC(=O)Nc2cc(Cl)ccc2OC)C2=NC3CS(=O)(=O)CC3S2)cc1` (stereo not shown) the value was 1.31%; for `COc1ccc(Cl)cc1NC(=O)CNc1ccc(F)cc1C`, 13.8%; for `O=C(COc1ccc(Cl)cc1Cl)NCC(=O)N/N=C/c1c[nH]c2ccccc12`, 16.6%. For `CN(CC(=O)Nc1ccccc1Cl)C(=O)COC(=O)/C=C/c1cccc(C(F)(F)F)c1` the value was 11%. `COc1cccc(OCc2nnc(SCC(=O)NCc3ccco3)n2C)c1`: the “hERG current change (%, negative = inhibition) at 1uM” value came to 14.6%.

Take `CC1CC(=O)NN1C(=O)c1ccccc1` (stereo not shown): the “hERG current change (%, negative = inhibition) at 1uM” value came to 9%. The value for `CCOC(=O)Cn1c(CN2CCc3ccccc3C2)nc2c1c(=O)n(C)c(=O)n2C` was 8.77%.

`Cc1nn(C)c(C(=O)Nc2ccn(Cc3ccccc3F)n2)c1[N+](=O)[O-]`: the “hERG current change (%, negative = inhibition) at 1uM” value was -3.75%. As to `O=C(NCC(=O)N1CCN(c2ccccc2O)CC1)c1ccc2c(c1)OCO2`, the “hERG current change (%, negative = inhibition) at 1uM” value turned out to be 2.18%. `O=S(=O)(Nc1cccc(-c2ccc(N3CCCCCC3)nn2)c1)c1cccc(F)c1`: the “hERG current change (%, negative = inhibition) at 1uM” value turned out to be 14.3%. For the compound `CC(C)C[C@H](CO)Nc1nc(N(C)c2cccc(Cl)c2)c2ncn(C(C)C)c2n1`, the “hERG current change (%, negative = inhibition) at 1uM” value came to 6.77%. For `CSc1nsc(SCC(=O)Nc2ccccc2F)n1` the value was 12.2%; for `O=C(NCc1ccccn1)c1ccc(Cl)c(S(=O)(=O)N2CCOCC2)c1`, -5.84%; for `Cc1oc2c(c(C)cc3oc(=O)c(CC(=O)NCC(=O)NCC(=O)NCC(C)O)c(C)c32)c1C` (stereo not shown), 12.6%.

Regarding `CS(=O)(=O)NCc1ccc(C(=O)NC2CCCCC2)cc1`, the “hERG current change (%, negative = inhibition) at 1uM” value is recorded as 14.8%. Turning to `Cc1ccc(NC(=O)NC2CC(=O)N(c3ccc4c(c3)OCCO4)C2)c(C)c1` (stereo not shown), the “hERG current change (%, negative = inhibition) at 1uM” value was 12.5%. The value for `CCCC(=O)N1CCC(O)(c2cccc(F)c2)CC1` was 10.4%; that for `c1ccc2c(NCCc3c[nH]c4ccccc34)c3ccccc3nc2c1` was -48.8%. For `CC(=O)COC(=O)C1CC(=O)N(c2ccc(C)c(C)c2)C1` (stereo not shown) the value was 0.273%; for `CCN(CC)CC(=O)Nc1c(C#N)cnn1-c1ccccc1`, 13.2%; for `CCN(CC)c1ccc(NC(=O)COC(=O)C23CCC(=O)N2c2ccccc2S3)cc1` (stereo not shown), 6.09%. For `O=C(O)CCn1[nH]c(=O)ccc1=O` the value was 13.6%; for `COc1cccc2c(=O)n(CC(=O)NC3CCCCC3)ccc12`, 12.3%. Take `Cn1ncc2c(NNC(=O)Cc3cccc4ccccc34)ncnc21`: the “hERG current change (%, negative = inhibition) at 1uM” value is 6.41%.

Turning to `CCc1cc(Cn2nc(-c3ccccc3)cc2C(=O)NCCOC)on1`, the “hERG current change (%, negative = inhibition) at 1uM” value was -2.49%. `OCCNc1ncnc2c1c(-c1ccccc1)c(-c1ccccc1)n2Cc1ccco1`: the “hERG current change (%, negative = inhibition) at 1uM” value is recorded as 7.19%.

For the compound `O=C(NCc1ccccc1)C(Cc1ccccc1)NS(=O)(=O)c1cccc2nsnc12` (stereo not shown), the “hERG current change (%, negative = inhibition) at 1uM” value is reported as -1.02%.

Consider `COc1ccc(Nc2nc(NCCO)nc(OC)n2)cc1`, for which the “hERG current change (%, negative = inhibition) at 1uM” value was found to be 12.4%. Regarding `O=C1CC(c2ccc(O)c(O)c2)Oc2c1ccc(O)c2O` (stereo not shown), the “hERG current change (%, negative = inhibition) at 1uM” value is -0.256%. The value for `O=C(NNS(=O)(=O)c1ccccc1)c1ccc(F)cc1` was 12.8%; that for `O=[N+]([O-])c1cccc(-c2ccc(C(=S)N3CCN(c4ccc(F)cc4)CC3)o2)c1` was 18.3%; that for `CCn1nc(C)c(NC(=O)/C=C/c2cnn(C)c2C)c1C` was 4.58%.

Consider `Cc1cc(C(=O)NC(C)C2CCCO2)c(C)o1` (stereo not shown), for which the “hERG current change (%, negative = inhibition) at 1uM” value amounted to 18.1%. Turning to `CCOC(=O)Cn1cc(Cl)cc(C(=O)Nc2ccccc2)c1=O`, the “hERG current change (%, negative = inhibition) at 1uM” value is on record as -12.5%. The value for `CCOC(=O)C(C(=O)Nc1ccccc1C)C1CCCCC1` (stereo not shown) was 17.9%.

On to `COc1ccc(C(=O)NCCS(=O)(=O)NCc2ccccc2)cc1`, for which the “hERG current change (%, negative = inhibition) at 1uM” value was determined as 18.6%. The value for `Brc1ccc2c(c1)C(C1=NCCN1)c1ccccc1CS2.O=C(O)/C=C\C(=O)O` (stereo not shown) was -6.4%; that for `COc1ccccc1C#Cc1ccc2c(=O)c3ccccc3n(C)c2c1` was 8.94%; that for `O=C(NCCOc1nc(N2CCCCC2)nc(N2CCCCC2)n1)Nc1ccccc1` was 19.7%. Regarding `CC(C)(C)n1nnnc1CN1CCN(C(c2ccccc2)c2ccccc2)CC1`, the “hERG current change (%, negative = inhibition) at 1uM” value came to 10.4%. As to `CN1C(=O)CCC(CCC(=O)O)(c2ccccc2O)C1=O` (stereo not shown), the “hERG current change (%, negative = inhibition) at 1uM” value amounted to 15.9%. For `Cc1ccc(S(=O)(=O)N(C)CC(=O)Oc2ccc(-c3nnco3)cc2)cc1` the value was 19.2%.

The values above are taken from publication PMC4336329 (PLoS ONE, 2015).
